Reference: article PMC10668032
This is one part of the list. At the low end of the ranking, values are background and their order means little.

What follows are sequences tested against SIX1 homeodomain (reference allele) (UniProt Q15475) (assay: universal protein binding microarray). Details: Universal all-10-mer PBM (8x60K, AMADID 030236), 300 nM GST-tagged protein, Alexa Fluor 488 anti-GST; buffer, salt, pH and temperature not stated; high values mean tight binding; most listed sequences are background and not binding sites; double strand, one strand shown.

| Sequence | binding signal [E-score] |
| --- | --- |
| GCGTCTCC | 0.083 |
| ATGGAAAG | -0.256 |
| GCGGCTCA | 0.154 |
| GAGGAATC | 0.0731 |
| GCCAATAA | 0.00915 |
| AACGCAAA | -0.101 |
| CAGGATTA | 0.213 |
| AATTTGGA | -0.0102 |
| GCACGCAC | -0.275 |
| ACCGATCG | 0.272 |
| CGCCAGAA | 0.0165 |
| AGTGTCTC | 0.14 |
| ACGCATTC | -0.226 |
| GGATGCGA | 0.116 |
| ACGCGTTG | -0.148 |
| ACTGAGCT | -0.0407 |
| CCGAACGA | 0.0208 |
| GAGCCGCC | 0.0196 |
| TAATGAGA | 0.105 |
| AAGGCTGA | -0.164 |
| AGTGGTCC | -0.0595 |
| CACATAGA | -0.089 |
| CTTAGGCC | -0.133 |
| ACTAAAGT | -0.12 |
| CGTACCAA | 0.0396 |

| Sequence | binding signal [E-score] |
| --- | --- |
| CAATCCCG | 0.155 |
| GACTTTCA | -0.248 |
| TCGTACGA | 0.123 |
| GTAATCGA | 0.0558 |
| CCATACGA | 0.066 |
| GGTCCTGA | 0.0339 |
| CAATACGA | 0.207 |
| ACCGGTCG | -0.0395 |
| TAGTCTAA | 0.0177 |
| CTGTACTA | -0.148 |
| AGTCCTTG | -0.178 |
| TACCCCCA | 0.243 |
| ACCGGAGT | 0.0581 |
| CGGTCACG | -0.28 |
| ACCTATTC | -0.112 |
| CCGGTCCG | -0.281 |
| CGTACGAC | -0.117 |
| ACCTCGTC | 0.00701 |
| CTGTGCAC | -0.041 |
| CGGCGTTC | -0.121 |
| ACTGTGTA | -0.0428 |
| GCAGTGCA | -0.12 |
| CGATGTCA | -0.301 |
| AAAAGGCC | -0.137 |
| TTCAAGAA | -0.112 |

| Sequence | binding signal [E-score] |
| --- | --- |
| GCAGCGCC | -0.277 |
| ACCTGCTC | 0.0651 |
| CGTACAGA | -0.0765 |
| GGATGTGA | 0.0332 |
| ACACCGAG | 0.33 |
| GTCAGTAA | -0.00843 |
| AAATATTG | 0.0121 |
| CGACCCTC | -0.156 |
| AACCGAAG | -0.159 |
| AAGGAGCC | -0.0376 |
| CGGAAGGA | -0.00308 |
| CGCCATAA | -0.0579 |
| GCACGCAA | -0.199 |
| AAGCATAT | 0.191 |
| ATGCGAAC | 0.0769 |
| CCAAATGC | -0.0927 |
| CCCTGCCG | -0.098 |
| AAAGACAC | 0.102 |
| GGCGCACC | -0.0719 |
| TGTTATAA | 0.0518 |
| GAATGCGC | 0.0394 |
| AGGAAAAA | -0.159 |
| GCATGATA | 0.427 |
| GATCACGA | 0.273 |
| AGCCCCCC | -0.0894 |

| Sequence | binding signal [E-score] |
| --- | --- |
| AATAGCGC | -0.0666 |
| CTCCTGGC | 0.0434 |
| CAATCCGG | 0.268 |
| ACCCGTTG | -0.0663 |
| ACGGAGAG | -0.0955 |
| CAACTTTA | -0.276 |
| CTCCTCCC | -0.193 |
| CATTTTCA | -0.118 |
| CCTTTACA | -0.176 |
| AATTACCT | -0.297 |
| GTCGCCAA | -0.166 |
| AAACGTTC | -0.207 |
| AGATTCCA | -0.107 |
| CAAACACC | 0.174 |
| CCACCAGA | 0.0796 |
| CAGCGTCC | -0.225 |
| CTCGGTTC | -0.0557 |
| CACTCCGC | -0.0539 |
| ATATCCGG | 0.421 |
| AGCGGCGG | -0.158 |
| ACCGTTTG | -0.0542 |
| ATTTCGTG | -0.0899 |
| CCTTCGGA | 0.138 |
| GCGGATAC | 0.43 |
| ATTCGTTA | -0.00264 |

| Sequence | binding signal [E-score] |
| --- | --- |
| ACGATGCG | -0.0412 |
| CTGCATGA | -0.0354 |
| GTGATAAA | -0.156 |
| AGCCGACT | 0.023 |
| CTTTTGAC | -0.253 |
| AAGTTAGT | -0.279 |
| AGTGGAGG | -0.0179 |
| AAACCCTC | -0.162 |
| CAATACAG | 0.0858 |
| AACGAGCT | -0.00337 |
| GTGTTAGA | 0.214 |
| AAACCAGT | -0.0512 |
| CTCGACAC | 0.129 |
| ACAGGTAG | 0.0291 |
| AACGGACC | -0.111 |
| AGAAACCG | 0.0115 |
| CATCAGAA | -0.179 |
| AACAAAGC | -0.266 |
| TAGTGACA | 0.0797 |
| AGTCATTG | -0.177 |
| CAGTGAGA | 0.16 |
| ACTTGGAA | -0.0387 |
| AGTGCTAA | -0.17 |
| AGTAACTA | -0.176 |
| ATGAGCTA | -0.0189 |

| Sequence | binding signal [E-score] |
| --- | --- |
| GCTGAAAC | -0.194 |
| GATCTTGA | 0.269 |
| AGAATAGG | 0.0562 |
| ATTGGTTG | -0.0105 |
| CAACCCAG | -0.0276 |
| CCGGCTTA | 0.131 |
| AAATAGCT | -0.239 |
| GGTGATAC | 0.486 |
| CTGCGCTC | -0.193 |
| AGTGCCGC | -0.184 |
| CCACTTGA | 0.0687 |
| ATCGATTG | 0.0667 |
| AACGCGAA | -0.146 |
| CGTATAGC | 0.185 |
| CAGTTTTA | -0.101 |
| CTTATGCC | 0.0583 |
| TGCTCCCA | 0.0634 |
| AGTTGTAT | 0.215 |
| CCTTGCTC | 0.0514 |
| AGCACTAC | -0.0916 |
| CCGCTCAC | -0.0754 |
| GAAAAGGA | -0.253 |
| AAGAGTCG | -0.181 |
| ACACTGGC | 0.0449 |
| CCTACGCG | 0.0131 |

| Sequence | binding signal [E-score] |
| --- | --- |
| CGAATAAG | -0.13 |
| ATTTGATC | 0.215 |
| ATCAGCTA | 0.192 |
| CCGTAATC | 0.169 |
| CCAATAGA | -0.0187 |
| ACACAAGC | -0.189 |
| ACTGGCCC | 0.00931 |
| AAACGAGA | -0.00747 |
| GTAAAAGA | -0.272 |
| CGCGTACA | -0.0236 |
| AGCAGCAC | -0.338 |
| AAGACCGA | -0.0751 |
| CCTGAGAC | 0.168 |
| TGGGCCAA | -0.236 |
| GCCAAAAC | -0.157 |
| ATGAAGCC | -0.0431 |
| TGAAAGAA | -0.198 |
| AACGTACC | -0.0776 |
| GCCCATGA | -0.055 |
| ATCCGCAG | 0.312 |
| AAGACGGC | -0.0691 |
| CAGGACGA | -0.109 |
